According to PubChem BioAssay AID1487 (National Center for Advancing Translational Sciences (NCATS), 2009):
In all, about 200,000 compounds went through this assay and about 25 (0.01%) were called active. Another 23% or so got no clear call; they are omitted. Calls come from the whole dose curve; as a rule, active = well fitted inhibition curve with a large enough effect in the signal ratio, with a control signal flat (not every such curve was filed as active); inconclusive = small, poorly fitted or top-dose-only effect, or effect the other way, or a change in a side signal; inactive = flat fitted curve, though single readings scatter; the % refers to the signal ratio. The list shows a part of the results, in another mix than the full data.

Experiment: qHTS Assay for Modulators of Lamin A Splicing
Settings: HeLa LMNA splicing GFP/RFP minigene ratio, 48 h; series mostly up to 46.1 µM; ratio change, negative = inhibition: at the top concentration
Method in brief: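 S3 HeLa cells stably expressing lamin A-EGFP splicing minigene plus DsRed2, 600 cells/well, 48 h compound exposure at 37C. Laser-scanning cytometry; analysed as GFP (500-530 nm)/RFP (575-640 nm) total intensity ratio; 0.5% DMSO vehicle.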
% is set by controls: 0 for no effect and ±100 for the full control effect.

Compound | ratio change, negative = inhibition
CCCCNC(=O)NS(=O)(=O)c1ccc(C)cc1 | inactive
CC(C)NCC(O)COc1cccc2ccccc12 (stereo unspecified) | inactive: 3.12%
CC1(C)NC(=O)N(c2ccc([N+](=O)[O-])c(C(F)(F)F)c2)C1=O | inactive: -1.21%
CCCCOc1cc(C(=O)NCCN(CC)CC)c2ccccc2n1 | inactive: 5.73%
O=C1CCc2cc(OCCCCc3nnnn3C3CCCCC3)ccc2N1 | inactive
Fc1ccc(C(c2ccc(F)cc2)N2CCN(C/C=C\c3ccccc3)CC2)cc1 | inactive: -13.1%
COc1cnc(NS(=O)(=O)c2ccc(N)cc2)nc1 | inactive: 1.17%
O=C(O)CCC(=O)Nc1ccc(S(=O)(=O)Nc2nccs2)cc1 | inactive: 4.54%
CC1CNCCN1S(=O)(=O)c1cccc2cnccc12 (stereo unspecified) | inactive: -1.13%
CNCCC(Oc1ccccc1OC)c1ccccc1 (stereo unspecified) | inactive: -21.2%
CCOC(=O)C1=C[C@]2(CC)CCCN3CCc4c(n1c1ccccc41)[C@@H]32 | inactive: -16%
O=C1C2C3c4ccccc4C(c4ccccc43)[C@@H]2c2nc3ccccc3n21 (stereo partly specified) | inactive: 1.81%
CCOc1ccc(CNC(=O)c2ccc(Sc3ccc(Cl)cc3)c(NC(C)=O)c2)cc1 | inactive: -22.3% [at 46 µM]
CNC(=O)/C(=C\c1ccc2c(c1)OCO2)NC(=O)c1ccc(Br)cc1 | inactive: -21.4%
CN1C(C(=O)Nc2ccccn2)=C(O)c2sccc2S1(=O)=O | inactive: -0.123%
Cc1[nH]c(=O)c(C#N)cc1-c1ccncc1 | inactive: -19.3%

Compound | ratio change, negative = inhibition
COCCN1C(=O)N[C@@H](c2cccc(C(F)(F)F)c2)C(C(=O)OC)=C1C | inactive: -4.38% [at 9.22 µM]
COc1cccc(OC)c1OCCNCC1COc2ccccc2O1 (stereo unspecified) | inactive: -5.53%
COc1ccc(CCn2c(=O)[nH]c3cc(C(=O)N4CCN(c5ccccc5)CC4)ccc3c2=O)cc1OC | inactive: 13.1% [at 46 µM]
Nc1c(C(=O)Nc2cccc(F)c2)nnn1-c1cccc(C(F)(F)F)c1 | inactive: 18.3% [at 46 µM]
CC(=O)c1cc2c(cc1N/C(=N/S(=O)(=O)c1ccccc1)c1ccc(Cl)cc1)OCO2 | inactive: -5.16% [at 46 µM]
N#C/C(=C/c1ccco1)c1nc2ccccc2s1 | inactive: -6.44%
O=C(NCc1ccccc1)[C@@H]1C[C@H]1[C@@H](NP(=O)(c1ccccc1)c1ccccc1)c1ccccc1 | inactive: 5.06%
NCCCCNCCCN | inactive: 13.7%
N[C@H](CO)C(=O)O | inactive: -23.3%
CCCCS(=O)(=O)/C=C/[C@H]1[C@H](S(=O)(=O)CCCC)[C@H]2C=C[C@@H]1C2 | inactive: -3.27%
CC(C)NC[C@H](O)COc1ccc(CC(N)=O)cc1 | inactive
COc1cc(OC)c(C(=O)CCCN2CCCC2)c(OC)c1 | inactive: -4.44%
CN1CCC(=C2c3ccccc3CC(=O)c3sccc32)CC1 | inactive: -11.1% [at 46 µM]
CCCN(CCC)C(=O)C(CCC(=O)O)NC(=O)c1ccccc1 (stereo unspecified) | inactive: -23.4%
COc1ccc(-n2c3c(c(=O)[nH]c2=O)C(NC(C)=O)(C(F)(F)F)C(=O)N3)cc1 (stereo unspecified) | inactive: 12.4% [at 46 µM]
